# Experimental data published in PubChem BioAssay AID624296 (National Center for Advancing Translational Sciences (NCATS), 2012).
# About 9,900 (2.8%) of roughly 350,000 compounds were called active. The inconclusive results got no clear call from the source; some entries with a clear call stand among them for comparison. Calls follow the shape of the dose curve; as a rule, active = well fitted activation curve with a large enough effect; inconclusive = small, poorly fitted or top-dose-only effect; inactive = no such curve, though single readings can be large or run the other way. No potency is given beside an inconclusive call; the fits are too rough.
# Experiment: A quantitative high throughput screen for small molecules that induce DNA re-replication in MCF 10a normal breast cells. Also: nearly all actives have a fitted effect of over 50% in size. As to activity, positive = re-replication: % of control where 0% means no effect.
# Settings: MCF 10A DNA re-replication, Hoechst nuclear intensity, 48 h; activity, positive = re-replication: at 46.1 µM (top of the series)
# Potency is read from the fitted curve at half-maximal effect; tags tell the direction and shape of the fitted curve.
Structure (SMILES),Potency,"activity, positive = re-replication"
NC(=O)c1cc(C(=O)c2cccc(Cl)c2Cl)c[nH]1,"inconclusive [activator, single point]",–
O=C(CSc1nc2cc(Cl)ccc2s1)c1ccco1,"inconclusive [activator, single point]",–
COc1ccc(NC(=O)c2cccc(F)c2)cc1Cl,–,inactive: -1.07%
Cc1ccc(/C=N/NC(=O)c2cc3c(s2)CCCC3)o1,–,inactive: -5.38%
COc1ccc(CCNC(=O)C2CCN(C(=O)c3ccccc3C)CC2)cc1,–,inactive: 8.03%
COc1ccc([N+](=O)[O-])cc1N(CC(O)CN(CC(C)C)CC(C)C)S(=O)(=O)c1ccccc1 (stereo unspecified),–,inactive: 11.4%
CC(C)CNC(=O)c1oc2ccccc2c1COc1ccccc1,"inconclusive [activator, partial curve, poor fit]",–
COc1cc(CCC(=O)Nc2ccc(S(=O)(=O)N3CCCC3)cc2)cc(OC)c1OC,–,inactive: 12%
N#Cc1ccc(S(=O)(=O)N2CCN(C(=O)c3cn(-c4ccccc4)nc3-c3cccnc3)CC2)cc1,"inconclusive [activator, single point]",–
CCCN1CCC(=O)N(CCSc2ccc(OC)cc2)CC1,"inconclusive [activator, single point]",–
Cc1cc(Cl)c2oc(C(=O)NCC(C)(C)N3CCOCC3)c(C)c2c1,"inconclusive [activator, full curve, poor fit]",–
O=C(Nc1ccc(-c2nc3ccccc3s2)c(OC(=O)c2ccccc2)c1)c1ccccc1,–,inactive: -0.477%
C#Cc1ccc([C@@H]2C=C(C(=O)NC3CC3)O[C@H](OCCCCO)C2)cc1,"inconclusive [activator, full curve]",–
CN(C)CCCN(C(=O)c1ccc(S(=O)(=O)N2CCc3ccccc3C2)cc1)c1nc2c(F)cccc2s1,–,inactive: -0.064%
CCOc1ccccc1CNC(=O)Cn1ccc2cc(S(=O)(=O)N3CCCCCC3)ccc21,"inconclusive [activator, partial curve, poor fit]",–
COc1ccc(NC(=O)/C(C#N)=C\c2cc(C)n(-c3ccc4c(c3)OCO4)c2C)cc1,active: 5.17 µM,–
COC(=O)c1ccc(N(C(=O)CNC(=O)c2ccco2)C(C(=O)NCC2CCCO2)c2ccc(OC)c(OC)c2)cc1 (stereo unspecified),"inconclusive [activator, single point]",–
CCCCCCC1CCC(C(=O)N2CCOCC2)CC1 (stereo unspecified),"inconclusive [activator, single point]",–
Cc1cccc(CNC(=O)C2CCC(=O)N(CCc3cccc(F)c3)C2)n1 (stereo unspecified),–,inactive: 0.973%
COC(=O)c1ccc2c(c1)C(C)(C)C(/C=C/c1ccc(O)cc1)=[N+]2C,active: 7.08 µM,–
COC(=O)Cc1nc2c(N)nc(N)nc2[nH]c1=O,–,inactive: -1.99%
COc1ccc(C(c2nnnn2C2CCCC2)N2CCC(C)CC2)cc1 (stereo unspecified),–,inactive: 3.32%
Oc1ccc(C[C@@H]2CNC(=S)N2CCCCC2CCCCC2)cc1,"inconclusive [activator, full curve, poor fit]",–

Structure (SMILES),Potency,"activity, positive = re-replication"
Cc1cccn2c(=O)c(/C=N/O)c(Nc3ccccc3F)nc12,–,inactive: 0.432%
Cc1ccc(-c2nn(-c3ccccc3)cc2CNCc2ccccc2)cc1,"inconclusive [activator, single point]",–
Cn1c(SCC(=O)NCC2CCCO2)nc2c([nH]c3ccccc32)c1=O (stereo unspecified),–,inactive: 2.86%
O=c1cc(-c2ccccc2)nc2cc(-c3ccc(Br)cc3)[nH]n12,active: 3.26 µM,–
COc1ccc(Cl)cc1NC(=O)CN(C)C(=O)c1sc2ccccc2c1Cl,"inconclusive [activator, single point]",–
C#CCOCCOCCOCCNc1nc(N2CCN(C(=O)Cn3cc(CC(C)O)nn3)CC2)nc(N2CCN(C(=O)[C@H](C)n3cc(CCC(=O)O)nn3)CC2)n1 (stereo partly specified),"inconclusive [activator, full curve, poor fit]",–
Cc1ccc2nc(-c3ccccc3)nn2c1,–,inactive: 1.88%
CC1(C)Cc2c(sc(NC(=O)c3ccco3)c2C#N)C(C)(C)N1,–,inactive: 2.58%
O=C1NC(=Nc2ccc(Cl)cc2)SC1Cc1cccc(Cl)c1Cl (stereo unspecified),"inconclusive [activator, single point]",–
Cc1cc(C(=O)Nc2nc(-c3ccccn3)cs2)ccc1[N+](=O)[O-],"inconclusive [activator, single point]",–
CCCCn1c(NC(=O)c2ccco2)c(S(=O)(=O)c2ccc(C)cc2)c2nc3ccccc3nc21,active: 8.2 µM,–
Cc1ccsc1C1C=C(c2cccc(Br)c2)Nc2ncnn21 (stereo unspecified),–,inactive: 1.85%
CCN(CC)C(=O)CSc1nc2cc3c(cc2c(=O)n1Cc1ccc(OC)cc1)OCO3,–,inactive: 5.34%
Fc1ccccc1COc1ccc2ccccc2c1CNc1nn[nH]n1,"inconclusive [activator, single point]",–
Cc1cc(Cn2nc(-c3ccccc3)cc2C(=O)NCc2cccc(C(F)(F)F)c2)on1,"inconclusive [activator, partial curve, poor fit]",–
O=c1/c(=C\c2cccnc2)sc2nc3ccccc3n12,–,inactive: 4.5%
O=C(NCc1cccc(Cl)c1)C1CCCN(c2ncnc3c2nc2n3CCCCC2)C1 (stereo unspecified),–,inactive: 7.3%
CCc1ccc(OCC(=O)NCCc2ccc3c(c2)OCCO3)cc1,"inconclusive [activator, single point]",–
COc1ccc(CCNC(=O)c2cc(-c3ccccc3OC)on2)cc1OC,–,inactive: 3.72%
OCCN(Cc1ccccc1)CC(O)COc1ccc(-c2ccccc2)cc1 (stereo unspecified),"inconclusive [activator, single point]",–
COc1ccc(C2=NN(C(=O)c3ccc(Cl)c([N+](=O)[O-])c3)C(c3ccccc3)C2)cc1 (stereo unspecified),"inconclusive [activator, single point]",–
Cc1c(/C(O)=C2\C(=O)C(=O)N(CCN(C)C)C2c2cccs2)cnn1-c1ccccc1 (stereo unspecified),–,inconclusive: 63.5% [activator]
O=C(CN(c1cccc(Br)c1)S(=O)(=O)c1ccccc1)N/N=C/c1cc([N+](=O)[O-])ccc1O,"inconclusive [activator, partial curve, poor fit]",–
